Reference: the supplement of paper PMC12217912
The other results are listed elsewhere or left out. The full chains were built here from the parent and the listed change. Values near 0.05 are background.

B1: TEV protease; numbered along this chain (parent)
chain: MGESLFKGPRDYNPISSSICHLTNESDGHTTSLYGIGFGPFIITNKHLFRRNNGTLVVQSLHGVFKVKDTTTLQQHLVDGRDMIIIRMPKDFPPFPQKLKFREPQREERICLVTTNFQTKSMSSMVSDTSCTFPSGDGIFWKHWIQTKDGQCGSPLVSTRDGFIVGIHSASNFTNTNNYFTSVPKNFMELLTNQEAQQWVSGWRLNADSVLWGGHKVFMVKPEEPFQPVKEATQL

Variants of: B1
Assay: raw area under fraction-flipped curve 0-4 h after induction (AUC4h, not background-subtracted), DNA-recorder readout of cleavage of the substrate (dimensionless); higher = more cleavage of the substrate by the protease variant
Conditions: temperature: 34 °C; time window: 0-4 h after rhamnose induction
Protocol: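 In vivo DNA recorder in E. coli TOP10(DE3) ΔrhaA at 34 °C. Each TEVp single-site mutant (parent TEVp 0) is paired with a single-site variant of the 7-mer TEVs (canonical ENLYFQ|S). The substrate sits between flexible linkers in a Bxb1-sfGFP-TEVs-SsrA fusion, so cleavage stabilises Bxb1 and speeds flipping of a recombination array, read by NGS. The value is the raw area under the fraction-flipped curve over 0-4 h after rhamnose induction (AUC4h), with ≥20 reads per time point. It is not background-subtracted; inactive controls average about 0.047.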
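Note: Bxb1 expression induced with 0.2% (w/v) L-rhamnose at OD600 near 0.5, cultures sampled hourly, flipped fraction per protease–substrate barcode pair counted by paired-end Illumina sequencing.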

| Variant | area with substrate ENLAFQS | area with substrate ENLCFQS | area with substrate ENLDFQS | area with substrate ENLEFQS | area with substrate ENLFFQS | area with substrate ENLHFQS | area with substrate ENLKFQS | area with substrate ENLLFQS | area with substrate ENLNFQS | area with substrate ENLPFQS | area with substrate ENLQFQS | area with substrate ENLSFQS | area with substrate ENLTFQS | area with substrate ENLVFQS | area with substrate ENLWFQS | area with substrate ENLGFQS | area with substrate ENLMFQS | area with substrate ENLRFQS | area with substrate ENLIFQS |
| --- | --- | --- | --- | --- | --- | --- | --- | --- | --- | --- | --- | --- | --- | --- | --- | --- | --- | --- | --- |
| T23E | 0.0657 | 0.0703 | 0.0761 | 0.0824 | 0.0814 | 0.0702 | 0.0488 | 0.0696 | 0.0607 | 0.0628 | 0.05 | 0.0466 | 0.0706 | 0.0902 | 0.0661 | – | – | – | – |
| S17P | 0.0567 | – | 0.0622 | 0.0583 | 0.0724 | 0.0658 | 0.0609 | 0.0679 | 0.0608 | 0.0682 | 0.0639 | 0.0708 | – | – | 0.0725 | 0.0766 | 0.0637 | 0.0738 | – |
| S4I | 0.0816 | 0.0876 | 0.0479 | 0.0569 | – | 0.0662 | 0.0941 | 0.0893 | 0.0439 | 0.0524 | 0.0817 | 0.0639 | – | – | 0.0453 | 0.0564 | 0.0887 | – | – |
| S18Q | 0.0722 | 0.102 | 0.0956 | 0.0699 | 0.0926 | 0.0588 | 0.0934 | 0.0862 | 0.068 | 0.0505 | – | 0.0707 | – | 0.1 | 0.0734 | 0.0752 | – | 0.103 | 0.0848 |
| S26E | 0.0761 | – | 0.0776 | 0.0676 | 0.074 | 0.0603 | – | 0.059 | 0.0676 | 0.0414 | 0.0526 | – | 0.0789 | – | 0.0466 | 0.061 | 0.0502 | 0.0681 | – |
| S26Q | 0.0595 | 0.0763 | 0.0635 | 0.0563 | 0.0704 | 0.0631 | 0.0618 | 0.0696 | 0.0535 | 0.069 | 0.0507 | 0.061 | 0.0597 | 0.0525 | 0.0684 | 0.0659 | – | 0.0592 | 0.0769 |
| S26R | 0.0574 | 0.0781 | 0.0484 | 0.0774 | 0.0656 | 0.0582 | – | 0.0548 | 0.0605 | 0.0677 | – | – | – | – | 0.0529 | – | – | – | 0.0672 |
| P9R | 0.0678 | 0.0716 | 0.0516 | – | 0.0967 | 0.0788 | 0.0794 | 0.0903 | 0.0532 | 0.0625 | 0.0686 | 0.0647 | – | – | 0.0762 | – | – | 0.0598 | – |
| P14H | 0.0948 | 0.0784 | 0.0654 | 0.0632 | 0.0832 | 0.0624 | – | – | 0.055 | 0.0525 | 0.0421 | – | – | 0.0624 | – | 0.0602 | – | – | 0.0883 |
| P14E | 0.0692 | – | 0.062 | 0.0667 | 0.0943 | 0.0763 | 0.0764 | – | 0.0674 | 0.05 | 0.0589 | 0.0538 | – | 0.12 | – | – | – | 0.0684 | 0.0687 |
| H21V | 0.0554 | 0.0674 | 0.0542 | 0.0671 | 0.0659 | 0.0656 | 0.0778 | – | 0.0614 | 0.0549 | 0.0582 | – | 0.0469 | 0.0784 | 0.0695 | 0.0694 | – | 0.0723 | 0.0741 |
| N13M | 0.0697 | 0.0679 | 0.0581 | – | 0.0817 | – | 0.0713 | 0.064 | 0.0581 | – | – | – | – | – | 0.0554 | – | 0.0644 | – | – |
| N13F | 0.0615 | 0.0724 | 0.0653 | 0.0661 | 0.0913 | 0.0644 | 0.0707 | 0.0565 | 0.0708 | 0.0603 | 0.0699 | 0.0531 | – | 0.0554 | 0.0523 | – | 0.0941 | – | 0.0898 |
| L22H | 0.0525 | 0.0545 | 0.0439 | 0.0678 | 0.0488 | 0.0476 | 0.0486 | 0.0443 | 0.0509 | 0.0532 | 0.0477 | 0.0532 | – | – | 0.0367 | 0.0555 | 0.0502 | 0.0404 | 0.0572 |
| L22S | 0.0494 | – | 0.0443 | 0.0415 | 0.0531 | 0.0506 | 0.0513 | 0.0592 | 0.0432 | 0.0455 | 0.0604 | 0.0478 | 0.0467 | 0.0442 | 0.0367 | – | 0.0595 | 0.0511 | 0.0498 |
| R10W | 0.0628 | 0.0685 | 0.0648 | 0.0742 | 0.0764 | 0.0634 | 0.0822 | 0.0987 | 0.065 | 0.0665 | 0.0625 | 0.052 | – | – | – | 0.0699 | 0.0639 | 0.0738 | 0.0796 |
| R10D | 0.0772 | 0.0659 | 0.0509 | 0.0611 | 0.0774 | 0.0692 | – | – | 0.0691 | 0.0587 | 0.0638 | 0.0638 | – | 0.0783 | 0.0497 | 0.0562 | – | – | 0.083 |
| D27S | 0.0575 | 0.0832 | 0.0333 | 0.0584 | 0.0761 | 0.0684 | – | – | 0.0686 | – | – | 0.0566 | – | 0.0618 | 0.0739 | – | – | 0.0657 | 0.0694 |
| D11F | 0.0456 | 0.0725 | 0.0661 | 0.0778 | 0.079 | 0.071 | 0.0662 | 0.0731 | 0.0677 | – | 0.11 | 0.0418 | – | 0.129 | 0.0616 | 0.0778 | – | 0.0709 | 0.087 |
| D11P | 0.0683 | – | 0.0674 | 0.0814 | 0.0724 | 0.0708 | 0.0608 | 0.0678 | 0.0709 | 0.0603 | 0.0629 | 0.054 | – | 0.0708 | – | – | – | 0.0899 | 0.0799 |
| I19W | 0.0576 | – | 0.0412 | 0.056 | 0.051 | 0.0527 | 0.0488 | – | 0.0625 | – | 0.0574 | 0.0484 | – | 0.0479 | 0.0475 | – | – | 0.0525 | 0.0516 |
| G28Q | 0.0633 | 0.0598 | – | – | 0.106 | 0.0715 | 0.0794 | 0.0758 | 0.0705 | 0.0549 | – | 0.0475 | – | – | – | 0.0767 | – | 0.0713 | 0.085 |
| Y12N | 0.0758 | – | – | – | 0.0987 | 0.0608 | 0.0684 | – | – | 0.0666 | 0.0526 | – | – | – | – | – | 0.0843 | – | 0.0682 |
| Y12C | 0.0755 | – | 0.0617 | – | 0.078 | 0.057 | 0.0791 | 0.0695 | 0.0696 | 0.059 | 0.0716 | 0.0597 | – | – | 0.0376 | – | 0.0698 | 0.0843 | 0.0932 |
| Y12M | 0.0592 | 0.0643 | 0.0545 | – | 0.0871 | 0.0673 | 0.0771 | 0.0728 | 0.0623 | 0.075 | 0.0698 | 0.0655 | – | 0.0851 | 0.0579 | – | – | 0.0747 | – |
